# Several values for one entry are separate records, joined by “and”; a condition that tells them apart may be missing. Identical values can stand only once. The list shows a part of the results. Shown are side measurements of this screen, not its main read-out; they come without a call.
# Experiments:
# Experiment in all cases: Primary Screen for Target Class Profiling of Small Molecule Inhibitors of Methyltransferases
# [1] = molecular target: Glycine N-methyltransferase (Homo sapiens) (UniProt Q14749); conditions: purified enzyme, MTase-Glo SAH luminescence; measured here: GNMT inhibition; at 40 µM; stronger effect = lower value
# Outline: (§1)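 Each enzyme was assayed with SAM and its substrate. SAH formation detected by MTase-Glo luminescence; single-point 40 uM screen[…].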
# [2] = molecular target: Guanidinoacetate N-methyltransferase (Homo sapiens) (UniProt Q14353); conditions: purified enzyme, MTase-Glo SAH luminescence; measured here: GAMT inhibition; at 40 µM; stronger effect = lower value
# Outline: as §1
# [3] = molecular target: Histamine N-methyltransferase (Homo sapiens) (UniProt P50135); conditions: purified enzyme, MTase-Glo SAH luminescence; measured here: HNMT inhibition; at 40 µM; stronger effect = lower value
# Outline: as §1
# [4] = molecular target: Nicotinamide N-methyltransferase (Homo sapiens) (UniProt P40261); conditions: purified enzyme, MTase-Glo SAH luminescence; measured here: NNMT inhibition; at 40 µM; stronger effect = lower value
# Outline: as §1
# [5] = molecular target: Phenylethanolamine N-methyltransferase (Homo sapiens) (UniProt P11086); conditions: purified enzyme, MTase-Glo SAH luminescence; measured here: PNMT inhibition; at 40 µM; stronger effect = lower value
# Outline: as §1
# % is set by controls: 0 for no effect and ±100 for the full control effect.
SMILES,"activity change, negative = inhibition [1]","activity change, negative = inhibition [2] [%]","activity change, negative = inhibition [3]","activity change, negative = inhibition [4]","activity change, negative = inhibition [5]"
COc1cccc(N2C(=O)c3cc4sccc4n3CC2(C)C(=O)NC2CCCCC2)c1 (stereo not drawn),-3.36%,-0.311,-2.63%,4%,-2.7%
CC(C)c1ccc2c(c1)c(SC(C)(C)C)c(CC(C)(C)C(=O)O)n2Cc1ccc(Cl)cc1,-26.5%,-1.66,-32.8%,-36.1%,2.38%
CC(C)Cn1c(=O)c2ccccc2n2c(SCC(=O)Nc3ccc(F)cc3F)nnc12,4.11%,0,10.4%,4.51%,7%
COc1ccc(NC(=O)N2CCn3cccc3C2C(C)C)cc1OC (stereo not drawn),6.6%,0.16,1.52%,2.88%,1.67%
CCOc1ccc(CCNC(=O)c2cc3n(n2)CC(C)(C(=O)NC2CCCCCC2)N(C)C3=O)cc1 (stereo not drawn),1.31%,-1.49,-2.7%,-3.43%,-4.29%
C[C@@H]1CN(C(=O)c2cnn(C)c2)CC[C@@]1(O)C1CCOCC1,8.89%,-9.5,-3.87%,-14.7%,-10%
Cc1ccccc1-n1c([C@H](C)Nc2nc(N)nc3nc[nH]c23)nc2cccc(C)c2c1=O,-4.77%,-2.95,0.509%,-21.6%,3.1%
COc1cccc(CN2C(=O)c3cc4c(OC)ccc(OC)c4n3CC2(C)C(=O)NC2CCCC2)c1 (stereo not drawn),6.27%,0.054,10.5%,8.68%,3.16%
O=C(Cn1nc2nc(Nc3ccc(F)cc3)ccn2c1=O)Nc1ccccc1,7.63%,-0.824,15.6%,-4.92%,2.2%
COc1cccc(-c2ccc(CN3CCCC(N[S+](=O)([O-])c4c(C)noc4C)C3)cc2)c1 (stereo not drawn),-3.02%,-1.34,-6.38%,-2.86%,-7.16%
C=C1CCC2C(C)(C(=O)OC)CCCC2(C)C1CCC1=CCOC1=O (stereo not drawn),-2%,-6.55,6.23%,-22.5%,-3.67%
COc1ccc(C(=O)N2CC[C@H](c3nc4ccccc4n3C)C2)cc1OC,-5.22%,-4.25,-2.85%,-8.07%,5.66%
CC(/C=C/C(=O)NO)=C\[C@@H](C)C(=O)c1ccc(N(C)C)cc1,1.16%,5.55,8.28%,-6.97%,5.2%
CSc1ccc(N2C(=O)c3ccccc3CC2(C)C(=O)NCc2ccccc2)cc1 (stereo not drawn),-6.61%,2.67,-9.24%,-9.69%,-6.83%
CC(C)NC(=O)C[C@@H]1C[C@H]2O[C@H](CNCc3ccccc3C(F)(F)F)[C@@H](O)[C@H]2O1,1.57%,2.48,2.2%,5.05%,11.4%
O=C(CO)N1CCC(c2[nH]nc(-c3ccc(Cl)cc3)c2-c2ccncn2)CC1,0.739%,5.86,7.42%,-13.6%,-2.93%
COc1cccc2c1OCC(C(=O)N1CCC(c3noc(C)n3)CC1)C2 (stereo not drawn),1.1%,0.062,1.56%,1.09%,2.35%
CC1(C)O[C@]23C[C@H]1C[C@H](OC(=O)c1ccoc1)[C@]2(C)[C@@H](OC(=O)c1ccoc1)CCC3(C)O (stereo partly drawn),0%,-0.891,-2.56%,-13.9%,0.87%
C=C1CCC2C(C)(C(=O)O)CCCC2(C)C1CCC(C)CC(=O)O (stereo not drawn),-4.18%,-14,1.72%,-20%,-9.54%
CN(CC(=O)N1CCc2ccccc21)S(=O)(=O)c1ccc2[nH]c3c(c2c1)CCCC3,3.5%,0,7.38%,2.98%,3.32%

SMILES,"activity change, negative = inhibition [1]","activity change, negative = inhibition [2] [%]","activity change, negative = inhibition [3]","activity change, negative = inhibition [4]","activity change, negative = inhibition [5]"
Cc1cc(Nc2nc(N[C@@H](C)c3ccc(F)cc3)c(C#N)cc2F)n[nH]1,-9.59% and -21.4%,0.15,-1.88% and -4%,-52% and -38.8%,-7.57% and 6.81%
Cc1cc(-c2cc3c(cn2)N(C)CCN(C)C3)ccn1,-8.46%,-7.71,-66.9%,-12%,-20.8%
C[C@]1(O)CCN(C(=O)c2ccc3c(c2)OCC(=O)N3)C[C@@H]1O,-5.48%,-6.52,-7.85%,-8.74%,1.41%
Cc1ccc(C(=O)N(CC2CCN(Cc3ccccc3F)CC2)CC2CCCO2)s1 (stereo not drawn),-2.33%,-7.33,-2.43%,-10.9%,-22.5%
COc1ccccc1CNS(=O)(=O)c1cc2c(cc1C)n(C)c(=O)n2C,-5.17%,3.47,-8.41%,-10.9%,-7.99%
COc1ccccc1CN1C(=O)c2cc(-c3ccco3)nn2CC1(C)C(=O)NC1CCCCC1 (stereo not drawn),-11.2%,-10.8,-0.546%,-10.4%,-6.08%
CCOC(=O)c1cc2n(n1)CC(C)(C(=O)NCCOC)N(c1ccc(C)c(C)c1)C2=O (stereo not drawn),6.8%,0.281,8.06%,7.31%,4.76%
COC(=O)c1cc2n(n1)CC(C)(C(=O)NC1CCC(C)CC1)N(c1ccc(F)cc1C)C2=O (stereo not drawn),2.07%,3.51,4.98%,3.14%,-0.277%
COc1cccc(CN2CC(=O)N(Cc3ccc(Cl)cc3)c3ccccc3S2(=O)=O)c1,14.9%,3.81,12.8%,3.1%,9.58%
CC1(C)C[C@@H]2[C@H](C1)[C@@]1(C)C[C@]13C(O)OC[C@]3(O)[C@H]2O (stereo partly drawn),-4.37%,-8.68,3.56%,-20.2%,-1.36%
COc1cc(N2CCC(N3CCN(C)CC3)CC2)ccc1Nc1ncnc(Nc2ccccc2S(=O)(=O)C(C)C)n1,3.56%,8.39,-23.6%,-9.25%,7.62%
COc1cccc(CN2C(=O)c3cc(-c4cccs4)nn3CC2(C)C(=O)NC2CCCCCC2)c1 (stereo not drawn),5.8%,0.398,9.13%,0.562%,2.63%
O=C(CCC1CCCN(Cc2cc3ccccc3s2)C1)Nc1ccccc1F (stereo not drawn),-6.53%,1.27,-4.39%,0.865%,-4.24%
COc1cc(OC)c(NC(=O)N2CCn3cccc3C2C)cc1Cl (stereo not drawn),-8.46%,-0.141,-8.12%,-12.7%,-8.66%
CCN(CCO)CCCC(C)Nc1ccnc2cc(Cl)ccc12 (stereo not drawn),7.06%,2.44,-37%,-10.6%,-1.78%
NC(=O)C1CCN(c2nc3c(-c4cccc(F)c4)nnn3c3ccc(Cl)cc23)CC1,2.23%,0,9.23%,14.6%,0.358%
Cc1nc(Nc2ncc(C(=O)Nc3c(C)cccc3Cl)s2)cc(N2CCN(CCO)CC2)n1,-56.3%,-19.4,-65.8%,-31.8%,-47.5%
CCOC(=O)c1cc2n(n1)CC(C)(C(=O)NCc1ccccc1OC)N(CCc1ccco1)C2=O (stereo not drawn),2.48%,0.256,8.69%,3.24%,2.37%
CCOC(=O)c1cc2n(n1)CC(C)(C(=O)NCc1ccc(C)cc1)N(c1cccc(CC)c1)C2=O (stereo not drawn),2.37%,4.17,7.26%,-3.71%,0.372%
Cc1ccc(NC(=O)Cn2nc3n(Cc4ccccc4)c(=O)c4ccccc4n3c2=O)c(C)c1,4.43%,1.58,6.46%,5.12%,3.17%

SMILES,"activity change, negative = inhibition [1]","activity change, negative = inhibition [2] [%]","activity change, negative = inhibition [3]","activity change, negative = inhibition [4]","activity change, negative = inhibition [5]"
CC(NC(=O)CNC(=O)c1cccc(-c2ccc(C(F)(F)F)cc2)c1)c1ccc(F)cc1 (stereo not drawn),-6.1%,-5.22,-3.43%,-15.6%,3.87%
CC(C)NC(=O)N1CCCC1c1noc(CCC(=O)NCC2CC2)n1 (stereo not drawn),-0.009%,1.3,1.8%,0.269%,0.566%
N#Cc1ccc(CN2CC[C@H](c3nnc(Cc4ccccc4)o3)C2)cc1,-4.08%,2.33,0.079%,-1.29%,-19.4%
Cc1cc(-c2nc3ccncc3[nH]2)c(C)[nH]1,-23.1%,-9.12,-90.2%,-42.4%,-14.6%
Cc1cccc(NS(=O)(=O)c2cc3c(cc2Cl)n(C)c(=O)n3C)c1,13.4%,0.925,8.68%,9.07%,7.03%
CCN(CCCNC(=O)CCc1nnc2n(CCc3ccccc3)c(=O)c3ccccc3n12)c1cccc(C)c1,-4.12%,-0.596,-10.2%,-2.15%,-10.2%
COc1ccccc1CN[C@@H]1CCCN[C@@H]1c1ccccc1,1.45%,14.5,-21.1%,-1.61%,4.31%
COc1nccnc1NC1CCN(C(=O)Cc2c(C)noc2C)CC1,-1.91%,-4.61,0.287%,-8.78%,-4.17%
CCCNC(=O)c1cc2n(n1)CC(C)(C(=O)NCc1ccc(F)cc1)N(C)C2=O (stereo not drawn),2.31%,0,2.67%,3.98%,2.99%
Cc1ccn(-c2ccc(-c3ncco3)cc2)c(=O)c1-c1ccc2nc(N)ncc2c1,-2.95%,3.78,6.77%,-15.4%,-1.63%
CCN1CCN(Cc2ccc(-c3cc4c(N[C@H](C)c5ccccc5)ncnc4[nH]3)cc2)CC1,–,-20.6,–,-54.7%,-65.3%
CC(=O)O[C@@H]1[C@H](O[C@@H]2OC[C@](O)(CO)[C@H]2O)[C@@H](O[C@@H]2O[C@@H](C)[C@H](O)[C@@H](O)[C@H]2O)[C@H](OC(=O)[C@]23CCC(C)(C)C[C@H]2C2=CCC4[C@@]5(C)C[C@H](O)[C@H](O[C@@H]6O[C@H](C(=O)O)[C@@H](O)[C@H](O)[C@H]6O)[C@@](C)(C(=O)O)C5CC[C@@]4(C)[C@]2(C)CC3)O[C@@H]1C (stereo partly drawn),0%,1.27,7.2%,-7.52%,1.95%
CC(C)C1=CC2=CCC3[C@](C)(CCC[C@@]3(C)C(=O)O)C2CC1=O (stereo partly drawn),0.983%,2.8,12.9%,-9.02%,2.88%
CCN1CCC[C@H]1CNC(=O)c1c(O)c(Cl)cc(Cl)c1OC,-0.932%,7.9,6.15%,-2.51%,7.39%
COc1ccccc1CCN1C(=O)c2cc(-c3ccccc3)nn2CC1(C)C(=O)NCc1ccccc1 (stereo not drawn),-0.066%,3.02,-1.34%,-6.77%,-6.62%
COc1ccccc1CN1C(=O)c2c(NC(C)=O)c3ccccc3n2CC1(C)C(=O)NCCC(C)C (stereo not drawn),0.624%,4.22,1.69%,1.4%,9.81%
CN1C(=O)c2cc(NC(=O)c3cc(-c4ccncc4)nc4ccccc34)ccc2N2CCN=C12,-9.75%,-2.15,-1.97%,-3.91%,-2.76%
O=C(NC1CCCC1)c1ccc2c(=O)n(Cc3ccccc3)c3nn(Cc4ccc(F)cc4)c(=O)n3c2c1,4.7%,0,8.5%,0.149%,0.675%
